1 molecule from patent US20130295093A1 (TOPOTARGET SWITZERLAND, published 2013) can be followed below.

The assay deals with T1, endogenous BAFF receptor in BJAB cells (human, UniProt Q96RJ3 1-184).
T1 construct: whole, on cells; also called hBAFF-R
T1 sequence (looked up): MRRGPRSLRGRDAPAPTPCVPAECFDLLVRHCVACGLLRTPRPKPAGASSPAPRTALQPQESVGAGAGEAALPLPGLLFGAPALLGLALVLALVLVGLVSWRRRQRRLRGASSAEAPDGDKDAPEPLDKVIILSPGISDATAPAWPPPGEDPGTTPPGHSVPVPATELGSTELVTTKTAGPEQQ
The assay can be described thus: flow cytometry on BAFF-R-positive BJAB cells, PE-conjugated anti-human Ig detection (FIG. 6A). For orientation: Flow cytometry measures light scatter and fluorescence of single cells or particles in a stream.

B1: Fc:BAFF (Fc fusion)
chain: not shown
notes: Used as cell supernatant in the ELISA and FACS, and at 3 ug in the immunoprecipitation; No chain number is stated for this construct
On to B1, for which the binding result is reported as “binds”.
